# According to the GPR68 mutational scans of Howard et al. (2025):
# Scores whose standard error is large were omitted. The source holds two more conditions with little spread; they are left out. Names with del lack the residues named; names with ins carry added residues between the positions named. For part of these data: The concentration of ogerin is not given here.
# B1: GPR68, Q15743 (parent)
# chain: MGNITADNSSMSCTIDHTIHQTLAPVVYVTVLVVGFPANCLSLYFGYLQIKARNELGVYLCNLTVADLFYICSLPFWLQYVLQHDNWSHGDLSCQVCGILLYENIYISVGFLCCISVDRYLAVAHPFRFHQFRTLKAAVGVSVVIWAKELLTSIYFLMHEEVIEDENQHRVCFEHYPIQAWQRAINYYRFLVGFLFPICLLLASYQGILRAVRRSHGTQKSRKDQIQRLVLSTVVIFLACFLPYHVLLLVRSVWEASCDFAKGVFNAYHFSLLLTSFNCVADPVLYCFVSETTHRDLARLRGACLAFLTCSRTGRAREAYPLGAPEASGKSGAQGEEPELLTKLHPAFQTPNSPGSGGFPTGRLA
# Legend:
# [1] = variants of: B1; experiment: cAMP reporter score (Enrich2 score, wild type = 0); higher = more signal; HEK293T, FACS bins
# [2] = variants of: B1; experiment: surface expression score (Enrich2 score, wild type = 0); higher = more signal; HEK293T, FACS bins
Variant,cAMP reporter score ([1]; pH 5.5),cAMP reporter score ([1]; pH 6),"cAMP reporter score ([1]; pH 6, modulator: ogerin)","cAMP reporter score ([1]; pH 6.5, modulator: ogerin)",surface expression score [2]
Y70del,-1.32,-0.465,-0.849,-0.081,-2.43
L60_C61insGSG,-2.02,-1.13,-1.21,-0.885,-2.31
Y59L,-0.519,-0.645,-1.41,-1.35,-2.79
Y59R,-2.04,-0.485,-2.35,-0.835,-1.8
Y59N,-0.845,-0.25,-1.85,-1.61,-1.21
Y59M,-1.55,-2.79,–,-1.39,-2.11
Y59W,0.083,-1.13,-0.656,-0.925,-4.72
Y59V,-1.43,-0.615,–,-1.46,-2.56
Y59S,-1.82,-1,-0.469,-2,-2.08
Y59K,-1.52,–,-2.07,-1.48,-2.28
Y59T,-0.437,-0.48,-0.674,–,-1.42
Y59P,-1.61,-0.781,-1.42,-0.296,-2.9
Y59Q,-1.27,–,-1.49,-1.68,-2.58
I71L,0.52,2.21,0.568,1.3,0.075
I71M,0.304,0.006,0.353,0.293,1.17
I71P,-1.19,–,-2.63,-1.78,-2.91
I71A,-0.208,-1.35,-0.624,-0.63,-1.81
I71F,-1.39,-1.5,-1.81,-1.55,-2.56
I71H,-1.72,–,–,-1.53,-1.54
I71N,-1.66,-1.43,-1.31,-1.41,-2.15
I71K,-1.37,-2,-1.26,-0.202,-2.79
I71C,0.709,1.14,0.619,-0.286,–

Variant,cAMP reporter score ([1]; pH 5.5),cAMP reporter score ([1]; pH 6),"cAMP reporter score ([1]; pH 6, modulator: ogerin)","cAMP reporter score ([1]; pH 6.5, modulator: ogerin)",surface expression score [2]
I71G,-1.51,0.74,0.658,-1.06,-2.04
Y59_L60insGS,-0.963,-1.06,-2.21,-1.31,-0.982
D67_L68insGS,-0.95,–,-1.18,-0.683,-2.08
N62_L63insGS,-1.15,-0.904,-0.801,-1.14,-3.25
A66_L68del,-1.2,-0.496,-1.66,-1.29,-2.46
F69_Y70del,-1.68,0.063,-1.1,-0.607,–
Y70_I71insGS,-2.02,-1.3,-0.931,-0.12,-2.25
T64Q,-0.555,-0.469,-0.338,-0.752,-0.462
T64M,-0.742,2.22,0,1.35,-0.994
T64P,-0.761,–,-1.06,-0.321,-2.52
T64V,0.743,4.83,1.46,3.41,0.044
T64Y,0.152,0.655,0.55,1.77,1.23
T64E,-1.51,-1.08,-2.11,-1.6,-3.1
T64C,0.93,6.02,2.13,–,2.74
T64D,-1.04,-1.86,-0.851,-0.258,–
T64A,0.062,4.18,–,5.36,-0.349
T64R,1.03,5.25,0.963,4.12,-1.71
T64K,-0.069,-0.178,-0.981,-0.916,-2.5
T64S,0.104,–,1.36,–,-0.234
T64G,1.16,3.49,0.425,–,0.469
T64L,1.58,3.35,1.73,2.66,1.47
T64N,0.521,1.79,0.554,1.21,-0.979

Variant,cAMP reporter score ([1]; pH 5.5),cAMP reporter score ([1]; pH 6),"cAMP reporter score ([1]; pH 6, modulator: ogerin)","cAMP reporter score ([1]; pH 6.5, modulator: ogerin)",surface expression score [2]
T64W,-0.045,2.54,-0.844,1.61,-1.24
T64I,1.46,5.57,1.76,3.65,0.411
L60C,-0.21,–,-1.04,-0.385,-2.02
L60E,-0.802,-0.574,–,-1.4,-2.32
L60K,-0.83,-0.998,–,-0.627,-1.78
L60H,0.078,1.43,-0.132,0.056,-2.48
L60W,-0.243,-0.619,–,0.48,-1.41
L60D,-1.32,-1.03,-1.79,-1.13,-1.76
L60N,-1.89,-1.95,-0.939,0.175,-2.04
L60R,-0.482,–,0.29,–,–
L60F,-0.044,0.508,-1.02,-0.905,0.05
L60P,-1.16,-1.01,-0.779,-1.24,-2.42
L60M,0.125,0.832,-0.828,-0.215,-0.22
L60A,1.19,–,-0.12,-0.698,-2.82
L60G,-1.48,–,-1.3,0.045,–
L60Y,-0.385,–,–,–,-0.424
L60Q,-0.525,1.5,-1.33,-0.875,-2.34
L60V,0.112,1.8,0.064,1.65,-2.21
L60T,-0.954,-0.439,-2.23,–,-2.74
L60S,-1.72,-0.714,-0.391,–,-2.4
L60I,1.05,4.59,0.734,2.88,1.16
Y59_L60insG,-1.64,-1.36,-2.37,-1.52,-2.51
